Results from article PMC4336329 (PLoS ONE, 2015).
Screen size: about 310,000 compounds; about 2,200 (0.71%) showed an effect of 50% or more. The effect is printed as a negative number. The list shows a part of the results.

What follows are compounds tested against human ether-à-go-go-related gene (hERG) potassium channel (human, UniProt Q12809) (assay: primary screen, population patch clamp on CHO cells stably expressing hERG).
human ether-à-go-go-related gene (hERG) potassium channel, sequence (Q12809 whole entry, looked up): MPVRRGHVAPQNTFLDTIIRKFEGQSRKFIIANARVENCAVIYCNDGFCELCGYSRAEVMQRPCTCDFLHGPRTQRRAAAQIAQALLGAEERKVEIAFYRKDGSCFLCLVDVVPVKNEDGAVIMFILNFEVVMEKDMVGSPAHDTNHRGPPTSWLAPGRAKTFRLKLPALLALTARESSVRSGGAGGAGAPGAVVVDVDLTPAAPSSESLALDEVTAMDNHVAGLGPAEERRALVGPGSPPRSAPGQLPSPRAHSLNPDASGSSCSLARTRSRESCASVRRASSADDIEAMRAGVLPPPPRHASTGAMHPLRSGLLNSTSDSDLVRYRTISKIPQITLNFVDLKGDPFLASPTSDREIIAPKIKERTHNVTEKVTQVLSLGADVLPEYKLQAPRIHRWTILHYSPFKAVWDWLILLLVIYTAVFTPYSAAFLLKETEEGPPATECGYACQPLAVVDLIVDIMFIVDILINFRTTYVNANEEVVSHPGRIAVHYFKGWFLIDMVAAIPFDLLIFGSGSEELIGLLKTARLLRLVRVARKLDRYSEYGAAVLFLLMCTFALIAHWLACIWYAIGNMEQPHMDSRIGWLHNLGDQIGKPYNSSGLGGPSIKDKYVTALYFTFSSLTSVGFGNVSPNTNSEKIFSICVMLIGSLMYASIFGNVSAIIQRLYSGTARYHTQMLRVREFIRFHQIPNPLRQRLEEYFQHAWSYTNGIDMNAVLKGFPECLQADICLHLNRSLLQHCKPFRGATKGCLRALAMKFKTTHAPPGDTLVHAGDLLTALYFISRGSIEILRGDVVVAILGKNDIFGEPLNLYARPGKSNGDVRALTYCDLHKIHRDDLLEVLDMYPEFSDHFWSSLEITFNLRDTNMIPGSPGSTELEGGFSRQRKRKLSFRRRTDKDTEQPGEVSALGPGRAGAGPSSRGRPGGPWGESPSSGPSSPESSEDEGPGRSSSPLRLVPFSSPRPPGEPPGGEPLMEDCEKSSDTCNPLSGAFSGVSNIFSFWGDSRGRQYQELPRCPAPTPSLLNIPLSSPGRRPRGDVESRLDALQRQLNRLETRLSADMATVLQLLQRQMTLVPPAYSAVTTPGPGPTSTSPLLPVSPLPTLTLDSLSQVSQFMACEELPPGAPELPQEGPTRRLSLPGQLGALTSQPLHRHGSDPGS

SMILES	hERG current change (%, negative = inhibition) at 1uM
O=C(OCC(=O)C12CC3CC(CC(C3)C1)C2)c1cccnc1	10.3%
CC(C)CN(C(=O)C1CC1)c1c(N)n(Cc2ccccc2)c(=O)[nH]c1=O	23%
O=C(c1ccc(OC2CCN(CCc3ccccc3)CC2)cc1)N1CCCC(CO)C1 (stereo not shown)	-1.57%
O=C(O)Cc1csc(Nc2cccc(Cl)c2)n1	5.87%
COc1ccccc1NC(=O)c1cc2ccccc2o1	23.1%
Cc1ccc(C(C)C)c(OCC(=O)NNC(=O)CC2OC(=O)c3ccccc32)c1 (stereo not shown)	-5.53%
COc1ccc2nc(SCC(=O)Nc3cc(C)on3)[nH]c2c1	0.913%
O=C(CCN1CCN(c2ccccn2)CC1)Nc1ccc(F)cc1	-9.5%
O=C(NCC1OCCCN1S(=O)(=O)c1cc(F)ccc1F)C(=O)NC1CCCCC1 (stereo not shown)	6.9%
COc1cc(C(=O)N2CCC3(CC2)NCCc2[nH]cnc23)cc(OC)c1OC	14.6%
CC#CCN1c2ccccc2[C@]23C[C@@H](C(=O)OC)N(C(=O)OCC)C2=NC(C(=O)OC)=C(C(=O)OC)[C@H]13	14.6%
CCOc1ccc(NS(=O)(=O)c2ccc(C(=O)N3CC(C)OC(C)C3)cc2)cc1 (stereo not shown)	10.4%
CC(=O)N(Cc1cccnc1)Cc1cc2ccccc2[nH]c1=O	8.07%
COc1ccc(C(=O)N2CCN(S(=O)(=O)c3ccc(F)cc3)CC2)cc1OC	13.6%
COCCN(C(=O)c1ccccc1OC1CCN(S(C)(=O)=O)CC1)C(C)C	15.6%
Clc1ccc(-c2cc3ccccc3nc2N2CCCC2)cc1	5.64%
CN(Cc1ccccc1)C(=O)COC(=O)c1ccc2c(c1)OCO2	7.97%
CCCCCCCC/C=C\CCCCCCCC(=O)NCCO	17.9%
O=S(=O)(Cc1ccccc1)Cc1cnc(Cl)s1	8.35%
Cc1ccc(CNC(=O)CSCc2ccccc2)cc1	24.3%
Br.C=CCn1c(C)csc1=Nc1ccccc1C	8.43%
COc1ccccc1-n1c(O)c(C=NCCCn2ccnc2)c(=O)[nH]c1=O	14.8%

SMILES	hERG current change (%, negative = inhibition) at 1uM
CCOC(=O)N1CCN(S(=O)(=O)c2ccc(C)cc2)C1	11.9%
Cc1ccc(OCc2nnc(SC(C)C(=O)O)n2Cc2ccccc2)cc1 (stereo not shown)	12%
CCNC(=O)COC(=O)C1CCC(=O)N(c2ccc(OC)cc2)C1c1ccc(OC)cc1 (stereo not shown)	-6.28%
CC(=O)NC(CCS(C)(=O)=O)C(=O)Nc1cccc(Cl)c1Cl (stereo not shown)	19.7%
O=C(Nc1ccc(S(=O)(=O)N2CCOCC2)cc1)c1ccc2ncsc2c1	4.89%
COc1ccc(-c2cc(-c3n[nH]c(=S)n3-c3cccc4ccccc34)[nH]n2)cc1	8.02%
CCCN1CCC(NC(=O)Nc2ccc(F)cc2F)CC1	17.3%
COc1ccc(C2=NS(=O)(=O)N(C)C(C(=O)Nc3ccc(C(C)=O)cc3)=C2)cc1OC	12.4%
CCN1CCN(c2ccc(S(=O)(=O)N3CCCCC3)cc2NC(=O)c2sccc2C)CC1	-25.8%
COc1cc(C(=O)OCc2ccc(C)cc2)cc(NC(=O)c2cccs2)c1OC	9.66%
O=c1[nH]c(O)c(C=Nc2cccc(F)c2)c(=O)[nH]1	14%
Cc1ccc(N2C(=O)c3ccccc3C2C(=O)c2ccc(O)cc2O)cc1 (stereo not shown)	-8.41%
COc1ccc(/C=C/C(=O)Nc2cccc(S(=O)(=O)NC3=NCCCCC3)c2)c(OC)c1	4.09%
O=C(O)c1nn(CC(=O)N2CCC(Cc3ccccc3)CC2)c(=O)c2ccccc12	10.9%
COc1cc(/C=C2/N=C(C3CCCCC3)OC2=O)cc(OC)c1OC	-7.35%
C=CCN1CN(S(=O)(=O)c2cccc(Cl)c2)c2nc3ccccc3nc21	15.1%
O=C(CSc1nnc2c(n1)[nH]c1ccccc12)Nc1nncs1	16.2%
COc1ccccc1-c1noc(CSc2nc(N)cc(=O)[nH]2)n1	17.5%
COc1ccc(N(CC(=O)Nc2ccccc2OC)S(=O)(=O)c2ccc(OC)c(OC)c2)cc1	9.33%
Cc1ccc(O)c(C2=Nc3ccccc3N=C(c3ccc([N+](=O)[O-])cc3)C2)c1	13.9%
CN(CCc1ccccn1)C(=O)CN(C)S(=O)(=O)c1ccc2c(c1)c(=O)n(C)c(=O)n2C	15.9%
CCOc1cc(N2CCOCC2)c(OCC)cc1NC(=O)c1ccccc1C	9.38%

SMILES	hERG current change (%, negative = inhibition) at 1uM
Cc1ccc(S(=O)(=O)N2CCc3c2cc([N+](=O)[O-])cc3[N+](=O)[O-])cc1	12%
Cc1cc(C)c2cc(C#N)c(SCC(=O)NCC3CCCO3)nc2c1 (stereo not shown)	-2.04%
COC(=O)C1=C(C)OC(N)=C(C#N)C1c1ccco1 (stereo not shown)	18.7%
O=C(COc1ncnc2sccc12)N1CCN(c2ccccc2)CC1.O=C(O)C(=O)O	-5.02%
Cc1ccc2c(c1)SC1=NC(c3ccccc3)(C(F)(F)F)NC(=O)N12 (stereo not shown)	10.5%
Cc1ccc(O)c(C(CC(=O)N2CCCC2)c2ccccc2)c1 (stereo not shown)	-5.51%
COc1ccc(Cn2nnnc2C(c2ccc(N(C)C)cc2)N2CCC(C)CC2)cc1 (stereo not shown)	10%
COc1ccc(C(=O)OCCN2C(=O)c3ccccc3C2=O)cc1	6.89%
COc1ccc2c(c1)cc1n2CCN=C1NCCO.Cl	7.67%
COc1cc(CC(=O)NCc2ccco2)cc(OC)c1OC	15.6%
COc1ccc(-c2c(C)[nH]n3c(=O)c(Cc4ccccc4)c(C)nc23)cc1	2.54%
O=C(NCCN1CCCOC1=O)C(=O)NCCN1CCCOC1=O	7.52%
COc1ccc(-n2c(O)c(/C=C3\C=Nc4ccc(Br)cc43)c(=O)[nH]c2=O)cc1	12%
O=C(NCc1nnc(SCC(=O)N2CCCc3ccccc32)o1)c1c(F)cccc1Cl	7.2%
O=C(c1ccc(N2CCCC2)c([N+](=O)[O-])c1)N1CCN(S(=O)(=O)c2ccc(Cl)cc2)CC1	1.42%
Cn1cccc1-c1cc(C(=O)N/N=C/c2ccc(Cl)cc2)[nH]n1	5.49%
CC(=O)N1CCN(C(=O)COC(=O)CNC(=O)c2ccc(C)cc2)CC1	10.1%
O=C(CSc1ccccc1)N[C@@H](Cc1ccccc1)C(=O)O	11.8%
CC1CCCCN1C/C=C/c1ccccc1[N+](=O)[O-] (stereo not shown)	-12.4%
Cc1ccc(N(Cc2cc3cc(C)ccc3[nH]c2=O)S(=O)(=O)c2ccccc2)cc1	7.71%
COc1ccc(C=O)cc1C1=CC(=O)C[C@H](c2ccc(Cl)cc2)C1	2.2%
CN(C)S(=O)(=O)c1cccc(C(=O)Nc2ccccc2)c1	17.7%

SMILES	hERG current change (%, negative = inhibition) at 1uM
COC(=O)/C(=C\Nc1ccc(Cl)cc1Cl)NC(=O)c1ccccc1	4.82%
O=C(COc1ccc(S(=O)(=O)N2CCOCC2)cc1)N1CCCCCC1	25.1%
Cc1ccc(C(=O)Nc2ccc(N3CCN(C)CC3)cc2)cc1C.Cl	-0.23%
CSCCC(NC(=O)c1ccco1)C(=O)N1CCN(c2ccccc2O)CC1 (stereo not shown)	-5.59%
O=S(=O)(Nc1nccs1)c1cc(Cl)ccc1Cl	0.942%
CCOC(=O)C1(Cc2ccccc2C(F)(F)F)CCN(C(C)CSC)CC1 (stereo not shown)	6.54%
Cc1ccc(O)c(NC(=O)C2CC(c3cccc(Br)c3)=NO2)c1 (stereo not shown)	0.541%
COc1ccc(C(C(=O)NCc2ccccc2)N(C(=O)c2snc(C(N)=O)c2N)c2ccccc2OC)cc1 (stereo not shown)	16.3%
CCOC(=O)N1CCN(Cc2nc(N)nc(Nc3ccc(OC)cc3)n2)CC1	-9.74%
CC(=O)Nc1ccc(NC(=O)Cn2nc(C(=O)Nc3ccc(C)cc3)ccc2=O)cc1	19.7%
CCOC(=O)C1CCCN(CCC(=O)Nc2ccc(Br)c(C)c2)C1.Cl (stereo not shown)	0.54%
Cc1ccc(SCn2nnc3ccccc3c2=O)c(C)c1	6.58%
Nc1nnc(SCC(=O)NCc2ccc3c(c2)OCO3)s1	13.6%
Cc1ccc(S(=O)(=O)N2CCCN(S(=O)(=O)C3CCS(=O)(=O)C3)CC2)cc1 (stereo not shown)	-21.3%
CCOC(=O)C(=O)N1CCC(Cc2ccccc2)CC1	0.375%
CCOC(=O)c1cc(CC)sc1NC(=O)COC(=O)C1CCC1	4.87%
CCOC(=O)c1c(C2CC2)csc1NC(=O)CSCc1c(C)noc1C	11.4%
CC(C)(CNS(=O)(=O)c1ccc(Cl)cc1)N1CCCCC1	-1.77%
CN(C)CCN(C)Cc1ccccc1Sc1cccc2ccccc12.Cl	-4.04%
COc1ccccc1NC(=O)Cn1nnc2sc3c(c2c1=O)CC(C)(C)OC3	14.8%
CCCCNC(=O)CSc1cc(=O)n(C)c2ccccc12	16.2%
CCCCC(=O)Nc1ccc(Cl)cn1	-4%
